Laboratory results reported in PubChem BioAssay AID1745845 (National Center for Advancing Translational Sciences (NCATS), 2022).
Where “and” joins values, the source holds several entries; their conditions need not be identical. Identical values can stand only once. Screen size: about 360,000 compounds; about 2,600 (0.72%) were called active. The shares of active, inactive and inconclusive entries below differ from those in the screen. The call rests on the fitted dose curve; in most records, active means well fitted inhibition curve with a large enough effect; inconclusive means small, poorly fitted or top-dose-only effect; inactive means no such curve, though single readings can be large or run the other way. A potency beside an inconclusive call is a rough fit, not a confirmed value.

Assay: Primary qHTS for Inhibitors of ATXN expression; further: nearly all actives have a fitted effect of over 55% in size
Settings: HEK-293 ATXN2-luciferase reporter, luminescence, 24 h; series mostly up to 57 µM
Summary of the method: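 ATXN2-luciferase reporter cells (luciferase flanked by upstream and downstream ATXN2 gene portions) were treated 24 h at 37 °C with compounds at up to 57 uM. SteadyGlo luminescence gave expression; GF-AFC fluorescence gave viability.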
Potency means the concentration at half of the fitted maximal effect; tags describe the fitted curve by direction and shape.

Row | Compound | Potency
1 | CCC(C)Sc1cccc(-c2nc3cc(C)ccn3c2NCc2ccccc2)c1 (configuration not stated) | inconclusive: 31.6 µM [inhibitor, single point]
2 | CSC(=Nc1ccccc1)N=C(SCc1ccccc1)N(C)C | inconclusive: 8.44 µM [inhibitor, full curve, poor fit]
3 | COc1ccc2c(CC(=O)Nc3ncc(C)s3)coc2c1 | inconclusive: 8.91 µM [inhibitor, partial curve, poor fit]
4 | N#CC1=C(N)NC(SCc2ccccc2)=C(C#N)C12CCCCC2 | inconclusive: 39.8 µM [inhibitor, single point]
5 | Cc1ccn2c(-c3csc(NCc4ccccc4)n3)c(C)nc2c1 | inconclusive: 11.2 µM [inhibitor, partial curve, poor fit]
6 | Cc1ccc(-c2csc(NC(=O)CSc3nnc4c(n3)[nH]c3ccccc34)n2)cc1 | inconclusive: 31.6 µM [inhibitor, partial curve, poor fit]
7 | CC(=NNC(=S)N(Cc1ccccn1)Cc1ccccn1)c1cnccn1 | active: 1.26 µM
8 | Cc1c(NC(=O)c2ccc(-c3ccc(F)cc3)o2)cccc1-c1nc2ncccc2o1 | inactive
9 | Cc1cccc(-c2nnc3n2N=C(c2ccccc2)CS3)c1 | inactive
10 | COc1cc(NC(=O)CCCN2C(=O)CCn3nc(-c4cn(C)c5ccccc45)cc32)cc(OC)c1 | inconclusive: 15.8 µM [inhibitor, partial curve, poor fit]
11 | O=C(NC(=S)NNC(=O)c1ccccc1O)c1cccc([N+](=O)[O-])c1 | inactive
12 | CN1CCN(CCNC(=O)c2ccc3nc(-c4ccc(F)cc4)c(-c4ccc(F)cc4)nc3c2)CC1 | inconclusive: 20 µM [inhibitor, partial curve, poor fit]
13 | O=C(NC(=S)NNC(=O)c1ccccc1O)c1ccccc1 | inconclusive: 31.6 µM [inhibitor, single point]
14 | CC(C)n1c(NCc2cc(Cl)ccc2O)nc2ccccc21 | active: 28.2 µM
15 | COc1cc2nc(N3CCN(C(=O)C4COc5ccccc5O4)CC3)nc(N)c2cc1OC (configuration not stated) | inactive and inconclusive: 5.44 µM [inhibitor, partial curve] and inconclusive: 25.1 µM [inhibitor, partial curve, poor fit]
16 | CN(C)CCOC(=O)c1ccc2[nH]c3c(c2c1)CSCC3 | inactive
17 | CCOc1cc2ncc(C#N)c(Nc3ccc(OCc4ccccn4)c(Cl)c3)c2cc1NC(=O)C=CCN(C)C | inconclusive: 21.7 µM [inhibitor, partial curve]
18 | N#Cc1c(NC(=O)CSc2ncccn2)oc(-c2ccccc2)c1-c1ccccc1 | inactive
19 | O=C(NCc1nc2ccccc2[nH]1)C1=C[C@@H](C2CCCCC2)C[C@@H](OCc2ccc(CO)cc2)O1 | inconclusive: 28.2 µM [inhibitor, single point]
20 | CCNC(=S)N/N=C/c1ccc(OCC(=O)Nc2ccc(C)cc2)cc1 | inactive
21 | CCCCOCC(O)CCc1n[nH]c(=S)n1-c1ccccc1 (configuration not stated) | inactive
22 | O=C(Nc1ccc(Cl)c(S(=O)(=O)N2CCOCC2)c1)c1ccc2c(c1)OCO2 | inconclusive: 35.5 µM [inhibitor, single point]
23 | C=C[C@@](C)(O)CC[C@@H]1[C@@]2(C)CCCC(C)(C)[C@@H]2CC[C@@]1(C)O | inconclusive: 25.1 µM [inhibitor, partial curve, poor fit]

Row | Compound | Potency
24 | COc1cc2nc(CN3CCN(S(=O)(=O)c4cc(C)ccc4C)CC3)[nH]c(=O)c2cc1OC | inconclusive: 22.4 µM [inhibitor, partial curve, poor fit]
25 | COc1ccc(-c2nc3n(n2)C(c2cccc(C)c2)C(C(N)=O)=C(C)N3)cc1OC (configuration not stated) | inactive
26 | Cc1c(Cl)cccc1N=Cc1ccc([N+](=O)[O-])s1 | inconclusive: 35.5 µM [inhibitor, single point]
27 | Cc1ccc(Nc2nc(N)nc(CCl)n2)cc1 | active: 11.2 µM
28 | Clc1c(Cl)c(Cl)c2n[nH]nc2c1Cl | inconclusive: 25.1 µM [inhibitor, single point]
29 | CC(=O)Nc1cccc(C(=O)/C=C/c2ccc(N(C)C)cc2)c1 | inactive
30 | CCn1c(=O)c2c(nc(C=Cc3ccc(OC)c(OC)c3)n2C)n(CC)c1=O | inconclusive: 24.3 µM [inhibitor, partial curve, poor fit]
31 | COc1ccc(-n2c(-c3cccc(OC)c3)nc(=S)c3c2CCCC3)cc1 | inconclusive: 39.8 µM [inhibitor, single point]
32 | COCCNC(=S)N/N=C(\C)c1ccc(-n2ccnc2)cc1 | inactive
33 | O=C(O)CCSc1nnc(-c2ccc(Cl)cc2Cl)o1 | inconclusive: 0.0794 µM [inhibitor, full curve, poor fit]
34 | CC(C)C1C(=O)N(Cc2cn(CCC3OCCO3)nn2)CCS(=O)(=O)N1Cc1ccc(-c2cccc(N(C)C)c2)cc1 (configuration not stated) | inconclusive: 31.6 µM [inhibitor, partial curve, poor fit]
35 | CCCCC[C@@H](C)N1C[C@@H](COCc2ccccc2)Oc2cc(N3CC[C@H](N(C)C)C3)ccc2S1(=O)=O | inconclusive: 25.1 µM [inhibitor, single point]
36 | CCCCC1C(=O)N(c2ccccc2)N(c2ccc(O)cc2)C1=O (configuration not stated) | active: 12.6 µM and active: 5.62 µM
37 | O=C(NC1CCN(Cc2ccccc2)CC1)c1cccc(NS(=O)(=O)c2ccc(Br)cc2)c1 | inconclusive: 12.6 µM [inhibitor, partial curve, poor fit]
38 | COC(=O)/C=C1\N/C(=N\c2nc(C)cc(C)n2)N(c2ccc(C)c(C)c2)C1=O | inactive
39 | Cc1cc(C(=O)CN2C(=O)NC3(CCCc4ccccc43)C2=O)c(C)n1Cc1ccccc1 (configuration not stated) | inactive
40 | NC(=O)CC(NC(=O)Cc1ccc(Br)cc1)c1ccc(N2CCN(c3ccccc3)CC2)c([N+](=O)[O-])c1 (configuration not stated) | inconclusive: 31.6 µM [inhibitor, single point]
41 | COc1ccc(C(=O)Cn2c(C)nc([N+](=O)[O-])c2Br)cc1 | inconclusive: 37.7 µM [inhibitor, single point]
42 | Cc1ccc(-c2cn3c(n2)sc2cc(C(=O)NC4CCCCCC4)ccc23)c(C)c1 | inactive
43 | Cn1c(Cn2c(=O)sc3ccccc32)nnc1SCc1ccc(F)cc1 | inconclusive: 25.1 µM [inhibitor, partial curve, poor fit]
44 | Cc1cccc(NC(c2nnc(-c3ccccc3)o2)c2ccc(F)cc2Cl)c1C (configuration not stated) | inactive
45 | C[C@H](CO)N1C[C@H](C)[C@@H](CN(C)CC2CCCCC2)Oc2ccc(NC(=O)Cn3cnnn3)cc2C1=O | inactive
46 | Cn1c(C(=O)Nc2cccc(Cl)c2)cc2c(=O)n(C)c3ccccc3c21 | inactive

Row | Compound | Potency
47 | Cc1nn(C)c2c1c(C(F)(F)F)cc(=O)n2C(C)C(=O)NCc1ccccc1 (configuration not stated) | inactive
48 | CN(C)S(=O)(=O)c1ccc(Cl)c(NC(=O)CSc2nc3c(cc2C#N)C(=O)CC(C)(C)C3)c1 | inactive
49 | COc1cc(/C=N\NC(=O)CC#N)ccc1OC/C=C/c1ccccc1 | inconclusive: 25.1 µM [inhibitor, single point]
50 | Cc1ccc(-n2nnnc2CNC(=O)c2ccc([N+](=O)[O-])o2)cc1C | inactive
51 | CNC(=O)CNC(=O)Nc1ccc(Cl)c(Cl)c1 | inactive
52 | CC1=C(C(=O)OC2CCCCCC2)C(c2c(Cl)cccc2Cl)CC(=O)N1 (configuration not stated) | inconclusive: 22.4 µM [inhibitor, single point]
53 | CCOC(=O)c1ccc(NC(=O)COc2ccccc2CNC2CCCC2)cc1 | inconclusive: 17.8 µM [inhibitor, partial curve]
54 | CCSC1=C(C#N)C(c2ccccc2OC)CC(=O)N1 (configuration not stated) | inactive
55 | CN(C(=O)C=Cc1ccccc1)c1ccccc1 | inactive
56 | O=C(NC12CC3CC(CC(C3)C1)C2)N1CCN(c2nc(-c3ccccc3)cs2)CC1 | inconclusive: 17.8 µM [inhibitor, partial curve]
57 | Cc1ccc2c(c1)C(=O)C(=O)N2Cc1ccc(C(F)(F)F)cc1 | inconclusive: 39.8 µM [inhibitor, single point]
58 | CCCCCCNC(=O)n1cc(F)c(=O)[nH]c1=O | inconclusive: 17.8 µM [inhibitor, partial curve, poor fit]
59 | CCCc1cc(C(=O)Nc2c(C)nn(Cc3ccc(Cl)c(Cl)c3)c2C)no1 | inconclusive: 14.1 µM [inhibitor, partial curve, poor fit]
60 | CC(C)c1ccc(OCc2cccc(C(=O)N/N=C/c3cccnc3)c2)cc1 | active: 10.6 µM
61 | O=C(Nc1ccc(S(=O)(=O)N2CCOCC2)cc1)c1c(F)cccc1F | inactive
62 | CC(C)Oc1ccc(CN2CCC2(C)C(=O)NCc2cccc3ccccc23)cc1 (configuration not stated) | inconclusive: 39.8 µM [inhibitor, single point]
63 | Cc1ccc2nc(C3CCCCC3)c(Cc3ccccc3C(F)(F)F)n2c1 | inconclusive: 35.5 µM [inhibitor, single point]
64 | CCOC(=O)[C@H]1[C@H]2COc3cc(OC)ccc3[C@@H]2N2C(=O)N(c3ccc(Cl)cc3)C(=O)[C@@]12C | inactive
65 | COC(=O)c1ccc(-n2c(C)cc(C(=O)CCl)c2C)cc1 | active: 15 µM
66 | Cc1ccc2nc(N(CCCN(C)C)C(=O)c3cc(-c4cccs4)nc4ccccc34)sc2c1 | inconclusive: 31.6 µM [inhibitor, single point]
67 | Cn1c2ccccc2c(=O)c2c(=O)n(C3CCCCC3)c(-c3cccs3)nc21 | inconclusive: 14.1 µM [inhibitor, partial curve]
